Measured values as given in article PMC7668297 (Journal of medicinal chemistry, 2020).

Target: human topoisomerase IIα (Homo sapiens, UniProt P11388)

| SMILES | Topoisomerase IIα inhibition IC50 ± SD |
| --- | --- |
| CN(c1cccc(F)c1)c1nc(-c2ccncc2)nc2c1CC(N)CC2 (centres unmarked) [Compound 7, N4-(3-fluorophenyl)-N4-methyl-2-(4-pyridyl)-5,6,7,8-tetrahydroquinazoline-4,6-diamine] | inactive compound |
| NC1CCc2nc(-c3ccncc3)nc(Nc3ccccc3)c2C1 (centres unmarked) [Compound 8, N4-phenyl-2-(4-pyridyl)-5,6,7,8-tetrahydroquinazoline-4,6-diamine] | inactive compound |
| NC1CCc2nc(-c3ccncc3)nc(Nc3ccccc3F)c2C1 (centres unmarked) [Compound 9, N4-(2-fluorophenyl)-2-(4-pyridyl)-5,6,7,8-tetrahydroquinazoline-4,6-diamine] | inactive compound |
| COc1ccc(Nc2nc(-c3ccncc3)nc3c2CC(N)CC3)cc1 (centres unmarked) [Compound 12, N4-(4-methoxyphenyl)-2-(4-pyridyl)-5,6,7,8-tetrahydroquinazoline-4,6-diamine] | complete loss of activity |
| CN(C)c1cccc(Nc2nc(-c3ccncc3)nc3c2CC(N)CC3)c1 (centres unmarked) [Compound 13, N4-[3-(dimethylamino)phenyl]-2-(4-pyridyl)-5,6,7,8-tetrahydroquinazoline-4,6-diamine] | inactive compound |
